Measured values: the supplement of paper PMC8183993
Values joined by “and” are separate entries in the source; they are usually repeats but may differ in a detail not shown here. Identical values can stand only once. Counter-ions that a name gives are not always drawn. ± gives the standard deviation of the averaged measurements. Over roughly 3,100 compounds, “mean cytoplasmic OPP incorporation (global translation) relative to DMSO” has its median near 100; the lowest 2% begin near 56. This is one part of the list.

tested on: U2OS; test: mean cytoplasmic OPP incorporation (global translation) relative to DMSO (% of DMSO); higher = more protein synthesis; details: 10 µM; 24 h
Experimental: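 Primary image-based screen in U2OS cells: compounds at 10 uM for 24 h, then a 1 h o-propargyl-puromycin (OPP) pulse, click labelling, and high-throughput microscopy. Mean cytoplasmic OPP intensity and nuclei count were normalised to DMSO wells within each plate (DMSO = 100) and averaged over triplicate plates.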

First: NC(=O)C(c1ccccc1)(c1ccccc1)[C@@H]1CCN(CCc2ccc3c(c2)CCO3)C1 [Darifenacin hydrobromide]
Second: c1ccc(CN2CCC3(CCc4ccccc43)CC2)cc1 [L-693,403 maleate]
The “mean cytoplasmic OPP incorporation” value of the first is higher: 107 for the first, 100 for the second.

Compared with O=C1c2ccc(Nc3ccc(F)cc3F)cc2CCc2ccc(OC[C@H](O)CO)cc21 [Skepinone-L], O=C(NCCO)c1cccc(-c2cc(Nc3ccc(OC(F)(F)F)cc3)ncn2)c1 is lower in “mean cytoplasmic OPP incorporation” value: 101 for the first, 97.8 for the second.

Compared with CCn1cc(-c2cccc(C(F)(F)F)c2)c2sc(C(=N)NC3CCS(=O)(=O)CC3)cc2c1=O, COc1cc2c(cc1C(F)(F)F)N(C(=O)Nc1cc(F)cc(-c3cccnc3)c1)CC2 is higher in “mean cytoplasmic OPP incorporation” value: 101 for the first, 121 for the second.

C[C@H]1C[C@@H]2[C@H]([C@@H](O)C[C@@]3(C)[C@H]2CC[C@]3(O)C(=O)CO)[C@@]2(C)C=CC(=O)C=C12 [Methylprednisolone] and C[C@@H]1C[C@H]2[C@@H]3CCC4=CC(=O)C=C[C@]4(C)[C@@]3(F)[C@@H](O)C[C@]2(C)[C@@]1(O)C(=O)CO [Dexamethasone] are within error of each other in “mean cytoplasmic OPP incorporation” value: 115 for the first, 105 ± 12 for the second.

C[C@H]1C[C@@H]2[C@H]([C@@H](O)C[C@@]3(C)[C@H]2CC[C@]3(O)C(=O)CO)[C@@]2(C)C=CC(=O)C=C12 [Methylprednisolone, 6-alpha] and CC1(C)O[C@@H]2C[C@H]3[C@@H]4CCC5=CC(=O)C=C[C@]5(C)[C@@]4(F)[C@@H](O)C[C@]3(C)[C@]2(C(=O)CO)O1 [Triamcinolone Acetonide] are the same in “mean cytoplasmic OPP incorporation” value: 104 for the first, 104 for the second.

First: COCC[n+]1c2c(n(Cc3cnccn3)c1C)C(=O)c1ccccc1C2=O
Second: O=C1c2ccccc2C(=O)c2c1ccc(O)c2O [Alizarin]
The “mean cytoplasmic OPP incorporation” value of the first is lower: 35 for the first, 106 for the second.

First: CCN(CC)CCc1nc(-c2ccccc2)no1 [Oxalamine citrate salt]
Second: O=C(O)CCCc1ccccc1 [sodium 4-Phenylbutyrate]
The “mean cytoplasmic OPP incorporation” value of the first is lower: 104 for the first, 122 for the second.

Going from CNCC(O)c1ccc(OC(=O)C(C)(C)C)c(OC(=O)C(C)(C)C)c1 (configuration not stated) [Dipivefrin hydrochloride] to CC(C)NCC(O)c1ccc(O)c(O)c1 (single isomer, unassigned; (+)) [(+)-Isoproterenol (+)-bitartrate salt], the “mean cytoplasmic OPP incorporation” value falls from 98.9 to 91.3.

Compared with COc1ccc([C@]2(C#N)CC[C@@H](C(=O)O)CC2)cc1OC1CCCC1, c1cc2c(cc1C1CCCCC1)c1c3n2CCNC3CCC1 (configuration not stated) [Tetrindole mesylate] is higher in “mean cytoplasmic OPP incorporation” value: 104 for the first, 129 for the second.

First: O=S(=O)(O)NC1CCCCC1 [Cyclamic  acid]
Second: O=c1[nH]c(=O)n(C2CCCO2)cc1F (configuration not stated) [Ftorafur]
The “mean cytoplasmic OPP incorporation” value of the first is higher: 106 for the first, 102 for the second.

Going from CC(C)NC[C@@H](O)COc1cccc2ccccc12 [(R)-(+)-Propranolol hydrochloride] to CC(C)NCC(O)COc1ccc(CC(N)=O)cc1 (racemic) [(RS)-Atenolol], the “mean cytoplasmic OPP incorporation” value rises from 103 to 105.

Compared with CC(C)NC[C@@H](O)COc1cccc2ccccc12 [(R)-Propranolol hydrochloride], CCC(C)N(C)C(=O)c1cc2ccccc2c(-c2ccccc2Cl)n1 (configuration not stated) is lower in “mean cytoplasmic OPP incorporation” value: 112 for the first, 108 for the second.

Nc1nc2ccc(Cl)cc2c2nc(-c3ccco3)nn12 and CC1=Nc2ccc(Cl)cc2S(=O)(=O)N1 [Diazoxide] are within error of each other in “mean cytoplasmic OPP incorporation” value: 97.9 for the first, 98.2 ± 3.3 for the second.

First: CC(NCCC(c1ccccc1)c1ccccc1)c1ccccc1 (configuration not stated) [Fendiline hydrochloride]
Second: COC(=O)C1=C(C)NC(C)=C(C(=O)OCCCN2CCC(c3ccccc3)(c3ccccc3)CC2)[C@H]1c1cccc([N+](=O)[O-])c1 [(S)-(+)-Niguldipine hydrochloride]
The “mean cytoplasmic OPP incorporation” value of the first is lower: 112 for the first, 116 for the second.

Compared with Cc1cc2c(F)c(Oc3ncnn4cc(OC[C@@H](C)OC(=O)[C@H](C)N)c(C)c34)ccc2[nH]1, Cc1cc(Nc2ncnc3ccc(-c4ccc(CNCCS(C)(=O)=O)o4)cc23)ccc1Oc1ccn2ncnc2c1 [HER2 Inhibitor 1] is higher in “mean cytoplasmic OPP incorporation” value: 85.769 ± 0.062 for the first, 119 for the second.

Compared with CCOC(=O)Nc1cc(-c2ccc(C)c(NS(C)(=O)=O)c2)nn2c(C)nnc12 [Bromosporine], CCCOc1ccn2c(C(C)=O)cc(-c3ccccc3S(C)(=O)=O)c2c1 is higher in “mean cytoplasmic OPP incorporation” value: 92.1 for the first, 101 for the second.

Compared with Cc1c(N(C)CS(=O)(=O)O)c(=O)n(-c2ccccc2)n1C [Dipyrone], Cc1ccc2c(c1)C(=O)C1(O)CCN(c3ccccc3)C1=N2 (configuration not stated) [(?)-Blebbistatin] is lower in “mean cytoplasmic OPP incorporation” value: 107 for the first, 94.5 for the second.

Going from NNc1nncc2ccccc12 [Hydralazine HCl] to Cc1cnc(NC(=O)C2=C(O)c3ccccc3S(=O)(=O)N2C)s1 [Meloxicam], the “mean cytoplasmic OPP incorporation” value rises from 99.8 to 103.

Compared with NNc1nncc2ccccc12 [Hydralazine hydrochloride], Cc1ccc(Cl)c(Nc2ccccc2C(=O)O)c1Cl [Meclofenamic acid sodium salt monohydrate] is higher in “mean cytoplasmic OPP incorporation” value: 100 for the first, 105 for the second.

First: CC(=O)OCC(CCn1cnc2cnc(N)nc21)COC(C)=O [Famciclovir]
Second: CCC(=O)OCN1C(=O)C=CC1=O
The “mean cytoplasmic OPP incorporation” value of the first is higher: 103 for the first, 99.3 for the second.

Compared with COc1ccc([C@@H]2CC(=O)c3c(O)cc(O[C@@H]4O[C@H](CO)[C@@H](O)[C@H](O)[C@H]4O[C@@H]4O[C@@H](C)[C@H](O)[C@@H](O)[C@H]4O)cc3O2)cc1O [Neohesperidin], CC(=O)[C@]1(O)Cc2c(O)c3c(c(O)c2[C@@H](O[C@H]2C[C@H](N)[C@H](O)[C@H](C)O2)C1)C(=O)c1ccccc1C3=O [Idarubicin HCl] is lower in “mean cytoplasmic OPP incorporation” value: 111 for the first, 60.3 for the second.

First: O=C(/C=C/c1ccc(O)c(O)c1)OCCc1ccccc1 [Caffeic acid phenethyl ester]
Second: COc1cc(O)cc(O)c1C(=O)/C=C/c1ccccc1 [Cardamonin]
The “mean cytoplasmic OPP incorporation” value of the first is lower: 81.5 for the first, 104 for the second.

Compared with C=CC(=O)Nc1cccc(Oc2nc(Nc3ccc(N4CCN(C)CC4)cc3OC)ncc2Cl)c1, Cn1ccc2cc(NC(=O)Nc3cccnc3)ccc21 is lower in “mean cytoplasmic OPP incorporation” value: 107 for the first, 92.4 for the second.

Compared with CN1CCN(c2c(F)cc3c(=O)c(C(=O)O)cn(CCF)c3c2F)CC1 [Fleroxacin], CCN1CCN(c2cc3c(cc2F)c(=O)c(C(=O)O)cn3C2CC2)CC1 [Enrofloxacin] is lower in “mean cytoplasmic OPP incorporation” value: 98.9 for the first, 98.2 for the second.

Going from C[N+](C)(C)CC[N+]1(C)Cc2c(Cl)c(Cl)c(Cl)c(Cl)c2C1 [Chlorisondamine diiodide] to CCN1CCC[C@H]1CNC(=O)c1c(OC)ccc(Br)c1OC [Remoxipride Hydrochloride], the “mean cytoplasmic OPP incorporation” value rises from 88.7 to 104.

Going from C[C@H](CCC(=O)O)[C@H]1CC[C@H]2[C@@H]3[C@H](O)C[C@@H]4C[C@H](O)CC[C@]4(C)[C@H]3CC[C@]12C [Chenodiol] to C=C1/C(=C\C=C2/CCC[C@]3(C)[C@@H]([C@H](C)/C=C/[C@@H](O)C4CC4)CC[C@@H]23)C[C@@H](O)C[C@@H]1O [Calcipotriene], the “mean cytoplasmic OPP incorporation” value falls from 102 to 101.

Going from Nc1cc(C(Cl)=C(Cl)Cl)c(S(N)(=O)=O)cc1S(N)(=O)=O [Clorsulon] to Cc1nnc(NS(=O)(=O)c2ccc(N)cc2)s1 [Sulfamethizole], the “mean cytoplasmic OPP incorporation” value rises from 96.4 to 97.8.

First: CC[C@H](C)C(=O)O[C@H]1CCC=C2C=C[C@H](C)[C@H](CC[C@@H]3C[C@@H](O)CC(=O)O3)[C@H]21 [Mevastatin]
Second: CC1CC(OC(=O)C(O)c2ccccc2)CC(C)(C)N1C (configuration not stated) [Eucatropine hydrochloride]
The “mean cytoplasmic OPP incorporation” value of the first is lower: 102 ± 2.1 for the first, 123 for the second.

Compared with COc1c2occc2c(OC)c2c(=O)cc(C)oc12 [Khellin], CCN1CCC[C@H]1CNC(=O)c1c(OC)ccc(Br)c1OC [Remoxipride hydrochloride] is higher in “mean cytoplasmic OPP incorporation” value: 86.9 for the first, 105 for the second.

First: CS(=O)(=O)N1CCc2c(-c3cnc(N)nc3)nc(N3CCOCC3)nc21
Second: FC(F)c1nc2ccccc2n1-c1nc(N2CCOCC2)nc(N2CCOCC2)n1
The “mean cytoplasmic OPP incorporation” value of the first is lower: 79.4 ± 20 for the first, 108 for the second.

Compared with O=c1oc2ccccc2c(O)c1Cc1c(O)c2ccccc2oc1=O [Dicumarol], CN(C)C[C@@H]1CCn2cc(c3ccccc32)C2=C(C(=O)NC2=O)c2cn(c3ccccc23)CCO1 is lower in “mean cytoplasmic OPP incorporation” value: 93.9 for the first, 90.3 for the second.

Compared with CC(/C=C1\SC(=S)N(CC(=O)O)C1=O)=C\c1ccccc1 [Epalrestat], CC(C(=O)O)c1ccc(N2Cc3ccccc3C2=O)cc1 (configuration not stated) [Indoprofen] is higher in “mean cytoplasmic OPP incorporation” value: 97.3 for the first, 101 for the second.

Compared with CN1CCN(CCCN2c3ccccc3Sc3ccc(Cl)cc32)CC1 [Prochlorperazine dimaleate], COc1ccccc1S(=O)(=O)Nc1ccc2c(c1)CN(C)C(=O)N2 is lower in “mean cytoplasmic OPP incorporation” value: 116 for the first, 62.3 ± 7.8 for the second.

First: Cc1nc(=O)c2cc(CN(C)c3ccc(C(=O)N[C@@H](CCC(=O)O)C(=O)O)s3)ccc2[nH]1 [Raltitrexed (Tomudex)]
Second: COC(=O)C1=C(C)NC(C)=C(C(=O)OCCCN2CCC(c3ccccc3)(c3ccccc3)CC2)[C@H]1c1cccc([N+](=O)[O-])c1 [S-(+)-Niguldipine hydrochloride]
The “mean cytoplasmic OPP incorporation” value of the first is lower: 97.6 for the first, 102 for the second.

Going from N=C(N)SCCc1c[nH]cn1 [Imetit dihydrobromide] to N=C(N)S/C=C\C(=O)O [ZAPA sulphate], the “mean cytoplasmic OPP incorporation” value rises from 99 to 107.

First: O=C(O)COC(=O)Cc1ccccc1Nc1c(Cl)cccc1Cl [Aceclofenac]
Second: COC(=O)C1=C(C)NC(C)=C(C(=O)OCCCN2CCC(c3ccccc3)(c3ccccc3)CC2)[C@H]1c1cccc([N+](=O)[O-])c1 [Niguldipine]
The “mean cytoplasmic OPP incorporation” value of the first is lower: 92.4 for the first, 101.5 ± 1 for the second.

First: CN(C)c1ccc(/C=C2/C(=O)Nc3ccccc32)cc1
Second: COC(=O)Nc1nc2ccc(SC(C)C)cc2[nH]1 [Methiazole]
The “mean cytoplasmic OPP incorporation” value of the first is higher: 88.7 for the first, 71.8 for the second.

Going from O=C(NCCO[N+](=O)[O-])c1cccnc1 [Nicorandil] to C=C1/C(=C\C=C2/CCC[C@]3(C)[C@@H]([C@H](C)/C=C/[C@@H](O)C4CC4)CC[C@@H]23)C[C@@H](O)C[C@@H]1O [Calcipotriol], the “mean cytoplasmic OPP incorporation” value falls from 101 ± 4.9 to 95.5.

For C[C@@H]1CCN(C(=O)CC#N)C[C@@H]1N(C)c1ncnc2[nH]ccc12, the “mean cytoplasmic OPP incorporation” value was 98.7 and 97.2.
